The record followed here is PubChem BioAssay AID1656 (Sanford-Burnham Center for Chemical Genomics, 2009).

This is one part of the list. Further columns of the screen follow, without active or inactive calls. Most of these compounds were active or inconclusive in the main read-out, so they are no random draw.

The nature of this assay: inhibitors of hepatocyte lipid droplet formation, primary screen, imaging, high-throughput imaging, BODIPY stain (AID 1656).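 Note: cells counted across two imaged fields per well.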 As to conditions: AML12 mouse hepatocytes, oleate lipid droplets, measured here: cell count, cytotoxicity flag, at 6.5 µM. The method, boiled down:
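System: AML12 hepatocytes (mouse). Probe or stimulus: oleic acid at 100 µM to induce lipid droplet formation. Times: overnight treatment with compound plus oleate. Detection: Image-based BODIPY and DAPI two-channel analysis. Evaluation: percent inhibition of filter-corrected integrated lipid droplet intensity per well.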
Take `Cc1cccc(C)c1NS(=O)(=O)c1ccc(-c2cnc(C3CC3)o2)cc1`: the cell count worked out at 228 cells. For `O=c1cc(-c2cccc(F)c2)[nH]c2ccccc12` the value was 166 cells; for `CCCCCCn1c(SCC(=O)Nc2cc(C)on2)nc2ccccc2c1=O`, 615 cells; for `COc1cccc2c1C(=O)c1c(O)c3c(c(O)c1C2=O)C[C@@](O)(C(C)=O)C[C@@H]3O[C@H]1C[C@H](N)[C@H](O)[C@H](C)O1`, 235 cells. For `CCOc1ccccc1C(=O)N1CCN(c2cccc(Cl)c2)CC1` the value was 126 cells; for `Cc1ccc(NC(=O)C2CCCN(S(=O)(=O)c3c(C)noc3/C=C/N(C)C)C2)cc1F` (centres undefined), 768 cells; for `CCCN(CCC)c1ccc(CC(=O)NC(C)Cc2ccccc2)cc1` (centres undefined), 713 cells. The figure for `COc1ccc(CNC(=O)N2CCN(S(=O)(=O)c3ccc(C)cc3C)CC2)cc1` is 825 cells; for `c1cc[n+](CCC[n+]2ccccc2)cc1` it is 832 cells; for `Cc1ccc(C(=O)Nc2ccccc2C(=O)NCc2cccnc2)cc1` it is 683 cells. Compound `Cc1cc(C)n2nc(C(=O)N/N=C/c3c4ccccc4cc4ccccc34)nc2n1` showed a cell count of 581 cells.

Take `N/C(=N\c1nc2c(c(=O)[nH]1)CCCC2)Nc1ccc(Oc2ccccc2)cc1`: the cell count was 731 cells.

Compound `CC(C)(C)c1ccc(S(=O)(=O)Nc2ccc(Cc3ccncc3)cc2)cc1` registered a cell count of 613 cells. Compound `COc1cccc(N2CCN(C(=O)c3ccc(CS(=O)c4ccccc4Cl)o3)CC2)c1` (centres undefined) had a cell count of 278 cells. The figure for `COc1ccc(OCC(=O)OCC(=O)N2CC(=O)Nc3ccccc32)cc1` is 264 cells; for `CCC(C)(C)NC(=O)C(c1ccc(OC)cc1)N(Cc1ccccc1)C(=O)CCC(=O)Nc1cc(C)on1` (centres undefined) it is 807 cells.

`CCC1=Nc2cc(C(=O)NCc3ccco3)ccc2Sc2ccc(C)cc21` yielded a cell count of 157 cells. For `COc1ccccc1/C=C/C(=O)NCC(=O)N/N=C/c1cc(Br)ccc1OC` the value was 768 cells; for `O=C(NC(=S)Nc1ccccn1)c1ccccc1`, 739 cells; for `Cc1ccc(NC2=C(NCCO)C(=O)c3ccccc3C2=O)cc1`, 704 cells. Regarding `CCOC(=O)c1sc2cc([N+](=O)[O-])cc(SCCO)c2c1N`, the cell count was determined as 620 cells. Regarding `COC(=O)c1[nH]c2c(c1C)C(=O)CC(c1cccs1)C2` (centres undefined), the cell count is 291 cells. For `COc1ccccc1NC(=O)N1CCCC1C(=O)Nc1ccc2c(c1)OCO2` (centres undefined) the value was 736 cells. As to `Nc1nc(-c2ccccc2)cc(N2CCCCC2)n1`, the cell count is 299 cells. For `CCOc1ccc(CCNC(=O)c2cc3sc(Cl)cc3n2C)cc1OCC` the value was 846 cells; for `COc1cc(C2N3CC4(C)CN2CC(C)(C3)C4)ccc1O` (centres undefined), 647 cells. For `CN(C)c1nc(N/N=C/c2c[nH]c3ccccc23)nc(N2CCOCC2)n1` the value was 686 cells; for `Cc1cc(C)cc(C(=O)N2CC(=O)Nc3ccccc32)c1`, 260 cells; for `CCOc1cc(/C=N\Nc2nc(Nc3ccccc3)nc(N3CCOCC3)n2)ccc1OC(=O)c1ccco1`, 587 cells.

`CC(C)NC(=S)N1CCN(S(=O)(=O)c2cccc(C(F)(F)F)c2)CC1` had a cell count of 270 cells. `Cc1cc(Br)cc(C)c1NC(=O)c1ccc(C#N)cc1F` registered a cell count of 213 cells.

For the compound `CCOc1ccc(CCNC(=O)c2nnc(Cc3ccc(F)cc3)o2)cc1OCC`, the cell count worked out at 695 cells. `CC(/C=N/NC(=O)c1cc(-c2ccc(Cl)cc2)nc2ccccc12)=C\c1ccco1` registered a cell count of 284 cells. In the case of `CCOC(=O)CN=C/C(C(=O)Nc1nccs1)=C(/C)O`, the cell count stood at 220 cells. The figure for `CC(=O)c1ccc(Nc2cc(C)nc3c(C)cccc23)cc1` is 214 cells; for `Cc1ccc(NC(=O)/C=C/c2ccco2)nc1` it is 169 cells; for `COc1ccc(CCNC(=O)CCc2cn(C)c3ccccc23)c(OC)c1OC` it is 792 cells. For the compound `Cc1nc(Nc2ccc(O)cc2)c2c3c(sc2n1)CCCC3`, the cell count was 684 cells. Regarding `COc1cccc(NC(=O)CSc2nc3ccccc3nc2N2CCCC2)c1`, the cell count is 737 cells. For `COCCOC(=O)c1[nH]c2c(c1C)C(=O)CC(c1cccs1)C2` (centres undefined) the value was 286 cells; for `CCC(C)(C)NC(=O)C(c1ccc(OC)cc1)N(CC1CCCO1)C(=O)CCC(=O)Nc1cc(C)on1` (centres undefined), 683 cells. The figure for `Cc1cccc(NC(=O)Cc2coc3ccc4ccccc4c23)n1` is 720 cells. The figure for `CC(Sc1nnc(-c2ccccc2)c(-c2ccccc2)n1)C(=O)N1CCc2ccccc21` (centres undefined) is 646 cells. `COc1cc2ncnc(Nc3cccc(Cl)c3)c2cc1OC`: the cell count stood at 437 cells. The figure for `Cc1ccc(NC(=O)CSc2nc3ccccc3nc2N2CCCC2)cc1` is 732 cells; for `CN(C)c1ccc(/C=N/OC(=O)Nc2ccccc2Cl)cc1` it is 198 cells. For `Cc1ccc(N=Nc2ccc3ccccc3c2O)cc1` the value was 834 cells. Take `Cc1ccc(C(=O)c2cc([N+](=O)[O-])ccc2N2CCCCC2)cc1C`: the cell count came out at 222 cells. In turn, `CCC(=NCCc1c(C)[nH]c2ccc(C)cc12)C1=C(O)CC(c2ccccc2)CC1=O` (centres undefined) registered a cell count of 179 cells.

In the case of `CCOc1ccc2nc(NC(=O)CSc3nc4ccccc4c(=O)n3Cc3ccco3)sc2c1`, the cell count was 666 cells. For `COc1ccc(/C=C(\NC(=O)c2ccc(C)cc2)C(=O)NCCN2CCOCC2)cc1` the value was 44 cells.

In turn, `COc1cc(C2C(C#N)=C(N)Oc3cc4c(cc32)OCO4)cc(OC)c1OC` (centres undefined) had a cell count of 207 cells.

In the case of `Cc1ccc(CNC(=O)c2ccc3nc4[nH]c5ccccc5c4nc3c2)cc1`, the cell count amounted to 626 cells. For `CCOc1ccc(CCNC(=O)Cn2nc(C)n3cccc3c2=O)cc1OCC` the value was 708 cells.

Compound `O=C(Nc1nc(-c2ccccc2)cs1)C1CCCCN1S(=O)(=O)c1ccc(Cl)cc1` (centres undefined) showed a cell count of 787 cells. `COc1ccc(Cl)cc1NC(=O)CN(C)C(=O)Cc1ccc2c(c1)CCC2` showed a cell count of 828 cells. The figure for `Cc1cc(C)n(-c2nc(N(c3ccccc3)c3ccccc3)nc(-n3nc(C)cc3C)n2)n1` is 682 cells; for `CCC(C)C(NC(=O)c1ccccc1NC(=O)c1ccc(OC)cc1)C(=O)NCc1ccco1` (centres undefined) it is 720 cells; for `Cc1ccc(C)c(NC(=O)Cn2cc(C(=O)C3CC3)c3ccccc32)c1` it is 816 cells. The compound `Fc1ccc(Br)cc1C1C=C(c2ccc(Br)s2)Nc2ncnn21` (centres undefined) registered a cell count of 228 cells.

`N#CC1=C(N)OC2=C(CCc3ccccc32)C1c1ccccc1` (centres undefined): the cell count came to 305 cells. Regarding `Cc1c(Cl)cccc1N(CC(=O)NC(C)c1ccccc1)S(C)(=O)=O` (centres undefined), the cell count was found to be 774 cells. `c1ccc(NCc2ccncc2)cc1` had a cell count of 917 cells. The figure for `O=C(N/N=C/c1cn(-c2ccccc2)nc1-c1cc2ccccc2o1)c1ccccc1Br` is 702 cells; for `CCOc1ccc(CCNC(=O)CCc2nc(-c3ccc(OC)cc3)no2)cc1OCC` it is 737 cells. For `Cc1cccc(C(C(=O)NC2CCCC2)N(C(=O)c2csnn2)C2CCCC2)c1` (centres undefined) the value was 794 cells; for `Cc1cccc(N(C(=O)c2nsc(Cl)c2Cl)C(C(=O)NC2CCCC2)c2ccc(O)cc2)c1C` (centres undefined), 293 cells. Compound `CCOc1ccc(CN(C)C(=O)CNC(=O)Cc2cccc3ccccc23)cc1` yielded a cell count of 770 cells. The figure for `CSc1nc2ccccc2n1CC(=O)Nc1c(C)cccc1C` is 709 cells; for `Cc1ccc(-n2cccc2/C=C2/NC(=O)N(CC(=O)Nc3cccc(C)c3)C2=O)cc1` it is 589 cells. The figure for `O=C(CNc1cc(S(=O)(=O)N2CCCC2)ccc1OCC(F)(F)F)Nc1cccc(C(F)(F)F)c1` is 639 cells. Take `O=C(NC1CCCc2c1cnn2-c1ccccc1F)c1ccccn1` (centres undefined): the cell count is 742 cells. The figure for `Fc1ccc(-c2cnn3c(-c4cccs4)ccnc23)cc1` is 700 cells. The figure for `Cc1ccccc1N1CCN(C(=S)c2ccc(-c3ccc([N+](=O)[O-])cc3)o2)CC1` is 711 cells; for `CCCCCCCCn1c(N2CCN(c3cccc(Cl)c3)CC2)nc2c1c(=O)[nH]c(=O)n2C` it is 794 cells; for `O=C1c2ccccc2C(=O)c2c(Nc3ccc(CCO)cc3)ccc(O)c21` it is 835 cells. The figure for `O=C(Nc1ccccc1)C1=C[C@@H](C2CCCCC2)C[C@@H](OCc2ccc(CO)cc2)O1` is 738 cells. Regarding `CCc1c(C#N)c(SCCC(=O)Nc2cccc(OC)c2)nc2c1C(=O)CC(C)(C)C2`, the cell count amounted to 748 cells. The figure for `Cc1cc(NC(=O)c2cc3ccccc3o2)cc(C)c1OCC(=O)N1CCOCC1` is 678 cells. Consider `O=C(OCCN1C(=O)c2cccc3c(N4CCOCC4)ccc(c23)C1=O)c1ccc(Cl)cc1Cl`, for which the cell count worked out at 242 cells.

`CCOc1ccc(CCNC(=O)c2cc(C)nc3ccccc23)cc1OCC` came in with a cell count of 671 cells. With `CCN(CC)c1ccc(NC(=O)CN2CCN(S(=O)(=O)c3cc(Cl)ccc3OC)CC2)cc1`, the cell count turned out to be 751 cells.

As for `COc1ccc(C(=O)OC(C)C(=O)Nc2cc(C(F)(F)F)ccc2Cl)c(OC)c1OC` (centres undefined), the cell count worked out at 726 cells.

For `CCOc1ncccc1C(=O)OC(C)C(=O)Nc1ccc(CC)cc1` (centres undefined), the cell count was 684 cells. For `CSc1ccc(NC(=O)N2CCC(C(=O)c3ccc(F)cc3)CC2)cc1` the value was 739 cells; for `CCOc1ccc(CN(C)C(=O)CNC(=O)c2ccc3ccccc3c2)cc1OC`, 766 cells; for `CCN1C(=O)/C(=C2\C=Cc3cc(C)ccc3N2CC)OC1=S`, 723 cells. The figure for `CCOc1ccc(CCNC(=O)c2c(C)nn(-c3ccccc3)c2Cl)cc1OCC` is 783 cells. The figure for `COc1ccc(Cl)cc1CNCCCSc1ncccn1` is 821 cells. `CCC1=Nc2cc(C(=O)NCc3ccco3)ccc2Sc2ccc(Cl)cc21` registered a cell count of 258 cells. `COc1ccc(C(=O)OC(C)C(=O)NC(C)CCc2ccccc2)cc1[N+](=O)[O-]` (centres undefined) yielded a cell count of 768 cells.

As for `CCOc1ccc(CCNC(=O)C2CC=CCC2C(=O)OC(C)C)cc1OCC` (centres undefined), the cell count is 836 cells.

In turn, `Cc1[nH]c2ccccc2c1/C=N/Nc1ccccc1[N+](=O)[O-]` displayed a cell count of 700 cells. The figure for `O=C(COc1ccc(C(=O)c2ccccc2)cc1)NCc1ccc(F)cc1` is 197 cells; for `COc1ccc(CCNC(=O)CCOc2cc(C)ccc2C)cc1OC` it is 713 cells; for `COCCN1C(=O)/C(=C/c2ccc(N3CCCC3)cc2C)SC1=S` it is 687 cells.

In the case of `Cc1ccccc1Cn1nc(C)c(NC(=O)C2c3ccccc3Oc3ccccc32)c1C`, the cell count came out at 656 cells. For `CCN1C(=O)c2ccccc2Sc2ccc(C(=O)NCCC(C)C)cc21` the value was 774 cells; for `CCOc1cc2c(cc1OCC)C(c1ccccc1OC)OC(=O)C2` (centres undefined), 653 cells; for `CCCCN(CCCNC(=O)CN1C(=O)COc2ccccc21)c1ccccc1`, 672 cells. Compound `CC1CCCCN1Cc1c(O)ccc2c(=O)c(-c3ccccc3)coc12` (centres undefined) had a cell count of 378 cells. As to `COc1ccc(N=Nc2nc(-c3ccccc3)c(-c3ccccc3)[nH]2)cc1`, the cell count turned out to be 622 cells. Compound `CCc1ccccc1NC(=O)c1cccc(NC(=O)/C=C/c2ccco2)c1` displayed a cell count of 300 cells. Compound `CCCN1C(=O)/C(=C/c2c(N3CCNC(=O)C3CC(=O)OCC)nc3c(C)cccn3c2=O)SC1=S` (centres undefined) had a cell count of 698 cells.
